Experimental data as given in PubChem BioAssay AID1347416 (National Center for Advancing Translational Sciences (NCATS), 2020).
About 1,600 (39%) of roughly 4,100 compounds were called active. The shares of active, inactive and inconclusive entries below differ from those in the screen. Calls come from the whole dose curve; as a rule, active = well fitted inhibition curve with a large enough effect; inconclusive = small, poorly fitted or top-dose-only effect; inactive = no such curve, though single readings can be large or run the other way. Where the call is inconclusive, the potency comes from a doubtful curve fit.

assay: qHTS Validation assay for Inhibitors of Plasmodium falciparum Dd2 growth in vitro; note: nearly all actives have a fitted effect of over 70% in size; settings: P. falciparum Dd2 in RBCs, SYBR Green growth, 72 h; series mostly up to 28.7 µM
Outline: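 P. falciparum Dd2-infected red blood cells (2.5% hematocrit, 0.3% parasitemia) grown 72 h at 37 °C under 5% O2 with compounds in a titration, 29 uM to 0.5 nM final. Growth read as SYBR Green-1 fluorescence after ~16 h lysis; artesunate 300 nM as positive control.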
Potency is the fitted concentration of half-maximal effect; tags give direction and shape of the fitted curve.

Potency, active:
O=C(NCc1ccco1)c1cc(-c2ccncc2)nc2ccccc12 5.96 µM, CC(C)c1ccccc1NC(=O)Cn1cccc1-c1nc(-c2ccccc2)no1 4.22 µM, CCc1cc(=O)oc2cc(C)cc(OCC(=O)NCC(O)c3ccccc3)c12 (stereo not given) 6.68 µM, c1cc(-c2noc([C@@H]3Cc4nc[nH]c4CN3CC3CCCCC3)n2)ccn1 21.7 µM, ClC(Cl)(Cl)c1nc2ccccc2n2nncc12 2.11 µM, Cc1ccc(/C=N/NC(=O)c2cc3ccccc3cc2O)o1 5.31 µM, CC(C)CNC(=O)CN1CN(c2ccccc2)C2(CCN(C(=O)NC3CCCCC3)CC2)C1=O 15 µM, COc1ccc(C(CCN2CCCCC2)c2c(O)cc(OC)cc2OC)cc1 (stereo not given) 1.33 µM

Potency, inconclusive:
COc1cccc(NC(=O)c2cnc3c(c2)N(C(=O)Cc2cn(C)c4ccccc24)CCC3)c1 15 µM [inhibitor, partial curve, poor fit], CCOc1ccccc1CN1CCC2(CCN([S+](=O)([O-])c3cccs3)CC2)Oc2ccccc21 18.8 µM [inhibitor, single point], Cc1ccccc1CSc1nc2c([nH]c3ccccc32)c(=O)n1-c1ccccc1 21.1 µM [inhibitor, single point], O=C(COc1cccc(-c2nnc3n2CCCC3)c1)N1CCN(c2ccc(F)cc2)CC1 23.7 µM [inhibitor, single point], O=C(c1cc2c(s1)CCC(C(=O)N1CCN(C3CCCCC3)CC1)C2)N1CCCCC1 (stereo not given) 10.6 µM [inhibitor, single point], N/C(=N\OC(=O)/C=C/c1ccc(Br)cc1)c1ccccn1 21.1 µM [inhibitor, single point], O=C(Nc1ccc(S(=O)(=O)Nc2ncccn2)cc1)c1nn(Cc2ccccc2)c(=O)c2ccccc12 15 µM [inhibitor, single point], COc1ccc(Cn2c(C3CCN(C(=O)COc4ccccc4)CC3)n[nH]c2=O)cc1 15 µM [inhibitor, single point], O=C(Nc1cccc(F)c1)N1CCOc2ccc(CN3CCc4ccccc4C3)cc2C1 9.44 µM [inhibitor, partial curve, poor fit], Cn1cccc1CN1CCCC2(Cc3ccccc3CNC2=O)C1 (stereo not given) 13.2 µM [inhibitor, partial curve], CCC(C)Oc1ccccc1CN1CCC(CO)(CN2CCCC2)CC1 (stereo not given) 7.5 µM [inhibitor, partial curve, poor fit], CN1CCCCCCN(Cc2ccc3[nH]ccc3c2)[C@H]2CCC[C@H]2C1=O 15 µM [inhibitor, single point], O=C(N1CC(Oc2ccc(-c3noc(-c4ccccc4)n3)cc2)C1)C1(c2ccccc2)CC1 21.1 µM [inhibitor, single point], CCC(=O)N1CCc2cc(Br)cc(S(=O)(=O)N3CCCC(C(=O)Nc4ccc(OC)c(Cl)c4)C3)c21 (stereo not given) 2.99 µM [inhibitor, partial curve, poor fit], CCO[C@@H]1OC(C(=O)N2CCN(Cc3ccc4c(c3)OCO4)CC2)=C[C@H](c2ccc(C(F)(F)F)cc2)[C@H]1CCCO 13.3 µM [inhibitor, single point], Cc1ccsc1CN1CCCN(S(C)(=O)=O)C(c2ccccc2)CC(=O)NCC1 (stereo not given) 15 µM [inhibitor, single point], COc1ccc(-c2csc3ncnc(N4CCN(S(=O)(=O)c5ccc(C(C)=O)cc5)CC4)c23)cc1 4.22 µM [inhibitor, full curve], CCc1cccc(NC(=O)Nc2cccs2)c1 16.8 µM [inhibitor, single point], COc1ccc(NC(=O)N2CCCC(Cn3c(C4CC4)nc4cccnc43)C2)cc1Cl (stereo not given) 21.1 µM [inhibitor, single point], CN1CCCCC1COc1ccc2c(n1)CN(Cc1ccccc1F)C(=O)CO2 (stereo not given) 15.3 µM [inhibitor, partial curve, poor fit], COCCOc1ccnc(-c2noc([C@@H]3CCCN3Cc3cn(C)c4ccccc34)n2)c1 19.3 µM [inhibitor, partial curve], Cc1ccc(CN2C(=O)C(Cc3ccccc3)Nc3ncnc(N4CCCCC4)c32)cc1 (stereo not given) 18.8 µM [inhibitor, single point]

Potency, inactive:
CN1C(=O)c2cncnc2OCC1CNC(=O)Cc1cccs1 (stereo not given), COc1ccc(CN2CCCC3(CNc4ccccc4[S+](=O)([O-])N3)C2)cc1 (stereo not given), COCCN1CC2(CCCN(Cc3cc(C(C)(C)C)n[nH]3)C2)CCC1=O (stereo not given), O=C(Nc1ccccc1)N1CCC(N2CC(OCC3CC3)C23CCOCC3)CC1 (stereo not given), Cc1ccc2oc(-c3cccc(NC(=O)c4cccc5c(Cl)cccc45)c3)nc2c1, CC(C)c1nc2oc3c(NCC4CCCO4)ncnc3c2c2c1CCC2 (stereo not given), CC(C)(C)C(=O)NC(=S)Nc1ccccc1N1CCCC1, CN(C)c1cc(N2CCCC(NC(=O)NCc3ccccc3)C2)ncn1 (stereo not given), CC1=C[C@@H](CNC(=O)c2cnccn2)[C@H](C(C)C)C[C@H]1Cc1nc2ccc(F)cc2[nH]1, CC(=O)c1cccc(NS(=O)(=O)c2cc(-c3cnc(C4CC4)o3)ccc2C)c1, O=C(CCc1cc2ccccc2[nH]c1=O)N1CCCCC1, Cn1c(=O)c(=O)n(C)c2cc(N3CCCC3)c(NC(=O)c3ccccc3F)cc21, CC(=O)N1CCc2cc(S(=O)(=O)NC(Cc3ccccc3)C(=O)Nc3cc(C)cc(C)c3)ccc21 (stereo not given), Cc1ccc(Cl)cc1NC(=O)c1cc(S(=O)(=O)N2CCOCC2)cn1C, CCN1Cc2nc(OC)c(CNC(=O)C(C)n3cc(C)cn3)cc2C1=O (stereo not given)
